One experiment relates to HSkMC. Description: cytotoxicity call (relative viability < 0.9). The conditions noted are these: 10 µM.
The next experiment concerns HepG2. Description: cytotoxicity call (relative viability < 0.9). The conditions noted are these: 10 µM.
The subject of a further experiment is S. aureus RN4220. Description: growth inhibition call (relative growth <= 0.2). The conditions noted are these: 50 µM.

The structures appear in SMILES notation. The list shows a part of the results.

Results on 26 compounds are retold here after the antibiotic and cytotoxicity screens of Wong et al. (2023).

Take `O=C(C[C@@H]1CC[C@@H]2[C@H](COC[C@@H](O)CN2S(=O)(=O)c2ccc(Oc3ccccc3)cc2)O1)NCCN1CCCCC1`: the cytotoxicity call in the experiment on HSkMC and in the experiment on HepG2 was “inactive” throughout. Also, in the experiment on S. aureus RN4220, the growth inhibition call is “inactive”.

Consider `COc1cccc(NC(=O)N2C[C@@H](O)COC[C@H]3O[C@@H](CC(=O)NCc4ccccc4F)CC[C@@H]32)c1`, for which the cytotoxicity call in the experiment with HSkMC and with HepG2 was “inactive” in each case. For the same compound, in the experiment on S. aureus RN4220, the growth inhibition call is “inactive”.

In the case of `O=c1c2cc(O)c(O)cc2oc2cc(O)c(C3OC(CO)C(O)C(O)C3O)c(O)c12` (stereo not drawn), the cytotoxicity call with HSkMC and in the experiment on HepG2 was “inactive” each time. In the experiment on S. aureus RN4220, the growth inhibition call is “inactive”.

Take `COc1ccc(CN(C)C[C@@H]2OCCCC[C@@H](C)Oc3ccc(NC(=O)NC4CCCCC4)cc3C(=O)N([C@H](C)CO)C[C@H]2C)cc1`: the cytotoxicity call in the experiment on HSkMC and in the experiment on HepG2 was “inactive” each time. The growth inhibition call with S. aureus RN4220 is “inactive”.

Take `Cc1noc(C)c1NC(=O)Nc1cccc2c1O[C@@H](CN(C)S(=O)(=O)c1cn(C)cn1)[C@H](C)CN([C@H](C)CO)C2=O`: the cytotoxicity call in the experiment on HSkMC and with HepG2 was “inactive” throughout. In the experiment with S. aureus RN4220, the growth inhibition call is “inactive”.

As for `Cc1noc(C)c1S(=O)(=O)N(C)C[C@H]1Oc2ccc(NC(=O)c3ccncc3)cc2C(=O)N([C@H](C)CO)C[C@@H]1C`, the cytotoxicity call in the experiment with HSkMC and in the experiment with HepG2 was “inactive” in each case. Moreover, in the experiment with S. aureus RN4220, the growth inhibition call is “inactive”.

For the compound `Cc1ccc(NC(=O)CN)c(F)c1`, the cytotoxicity call with HSkMC and in the experiment with HepG2 was “inactive” throughout. The growth inhibition call in the experiment with S. aureus RN4220 is “inactive”.

`Brc1cccc2ocnc12`: the cytotoxicity call with HSkMC and with HepG2 was “inactive” each time. Besides, the growth inhibition call with S. aureus RN4220 was “inactive”.

For the compound `Cc1ccc(S(=O)(=O)Nc2ccc3c(c2)C(=O)N([C@@H](C)CO)C[C@@H](C)[C@@H](CN(C)Cc2ccc(-c4ccccc4)cc2)O3)cc1`, the cytotoxicity call in the experiment on HSkMC is “inactive”. Besides, the cytotoxicity call in the experiment with HepG2 was “active”. In the experiment on S. aureus RN4220, the growth inhibition call was “inactive”.

`COc1ccc(S(=O)(=O)N(C)C[C@@H]2Oc3c(NC(=O)Nc4cccc5ccccc45)cccc3C(=O)N([C@@H](C)CO)C[C@@H]2C)cc1`: the cytotoxicity call in the experiment on HSkMC and in the experiment on HepG2 was “inactive” each time. The growth inhibition call in the experiment on S. aureus RN4220 is “inactive”.

Consider `C[C@@H]1CN([C@H](C)CO)C(=O)c2cc(NC(=O)Nc3ccc(C(F)(F)F)cc3)ccc2O[C@H]1CN(C)C(=O)Nc1ccc(F)cc1`, for which the cytotoxicity call with HSkMC and with HepG2 was “inactive” in each case. Further, the growth inhibition call in the experiment with S. aureus RN4220 is “inactive”.

For the compound `C[C@@H]1CN([C@@H](C)CO)C(=O)Cc2cc(NC(=O)Cc3ccccc3)ccc2O[C@@H]1CN(C)S(=O)(=O)c1ccccc1`, the cytotoxicity call in the experiment with HSkMC and in the experiment with HepG2 was “inactive” each time. For the same compound, the growth inhibition call in the experiment with S. aureus RN4220 is “inactive”.

On to `O=C(C[C@H]1C=C[C@@H](NC(=O)CN2CCOCC2)[C@H](CO)O1)NCCc1ccccc1`, for which the cytotoxicity call in the experiment on HSkMC and in the experiment on HepG2 was “inactive” in each case. Besides, the growth inhibition call with S. aureus RN4220 is “inactive”.

Turning to `C[C@@H]1CN([C@H](C)CO)C(=O)c2cc(NS(=O)(=O)c3cn(C)cn3)ccc2O[C@@H](C)CCCCO[C@@H]1CN(C)S(=O)(=O)c1cn(C)cn1`, the cytotoxicity call in the experiment on HSkMC and in the experiment with HepG2 was “inactive” each time. Besides, the growth inhibition call with S. aureus RN4220 is “inactive”.

Regarding `COc1cccc(S(=O)(=O)N[C@H]2C=C[C@H](CC(=O)NC3CCC3)O[C@H]2CO)c1`, the cytotoxicity call in the experiment with HSkMC and in the experiment on HepG2 was “inactive” each time. In addition, the growth inhibition call in the experiment with S. aureus RN4220 is “inactive”.

As for `Cc1noc(C)c1NC(=O)Nc1ccc2c(c1)C(=O)N([C@H](C)CO)C[C@H](C)[C@@H](CN(C)C(=O)c1ccccc1)OCCCC[C@@H](C)O2`, the cytotoxicity call in the experiment on HSkMC and with HepG2 was “inactive” in each case. In the experiment with S. aureus RN4220, the growth inhibition call was “inactive”.

For the compound `C[C@@H]1CN([C@@H](C)CO)C(=O)c2cc(NC(=O)Nc3ccc(C(F)(F)F)cc3)ccc2O[C@@H](C)CCCCO[C@H]1CN(C)C(=O)CCCN(C)C`, the cytotoxicity call with HSkMC and in the experiment on HepG2 was “inactive” in each case. In the experiment on S. aureus RN4220, the growth inhibition call is “inactive”.

On to `O[C@@H]1[C@@H](O)[C@H](Br)C=C[C@H]1O`, for which the cytotoxicity call with HSkMC and in the experiment with HepG2 was “inactive” each time. For the same compound, in the experiment on S. aureus RN4220, the growth inhibition call is “inactive”.

With `C[C@@H]1CN([C@H](C)CO)C(=O)c2cccc(NS(=O)(=O)c3ccc(F)cc3)c2O[C@H]1CN(C)Cc1ccc(-c2ccccc2)cc1`, the cytotoxicity call in the experiment with HSkMC is “inactive”. Besides, the cytotoxicity call with HepG2 was “active”. In addition, the growth inhibition call with S. aureus RN4220 was “inactive”.

As for `COc1ccc(CN(C)C[C@@H]2OCCCC[C@@H](C)Oc3ccc(NS(=O)(=O)c4ccc(Cl)cc4)cc3C(=O)N([C@H](C)CO)C[C@@H]2C)cc1`, the cytotoxicity call in the experiment on HSkMC and in the experiment on HepG2 was “inactive” throughout. For the same compound, the growth inhibition call in the experiment with S. aureus RN4220 is “inactive”.

As for `O=C1[C@H]2C=NN[C@@H]2C(=O)N1Cc1ccccc1`, the cytotoxicity call in the experiment with HSkMC and in the experiment on HepG2 was “inactive” each time. The growth inhibition call in the experiment with S. aureus RN4220 is “inactive”.

On to `COc1ccc(CN(C)C[C@@H]2Oc3ccc(NS(=O)(=O)c4c(C)noc4C)cc3CC(=O)N([C@H](C)CO)C[C@H]2C)cc1`, for which the cytotoxicity call with HSkMC and in the experiment with HepG2 was “inactive” throughout. Further, in the experiment with S. aureus RN4220, the growth inhibition call was “inactive”.

Take `O=C(C[C@@H]1C[C@H]2c3cc(NS(=O)(=O)c4ccc(F)cc4)ccc3O[C@H]2[C@H](CO)O1)NCCc1ccccc1`: the cytotoxicity call with HSkMC and with HepG2 was “inactive” each time. Besides, in the experiment with S. aureus RN4220, the growth inhibition call was “inactive”.

Turning to `CC(C)NC(=O)N(C)C[C@H]1OCCCC[C@@H](C)Oc2ccc(NS(=O)(=O)c3cn(C)cn3)cc2C(=O)N([C@@H](C)CO)C[C@@H]1C`, the cytotoxicity call with HSkMC and in the experiment on HepG2 was “inactive” each time. For the same compound, the growth inhibition call in the experiment on S. aureus RN4220 is “inactive”.

As to `C[C@@H]1CN([C@H](C)CO)C(=O)Cc2cc(NS(=O)(=O)c3cccs3)ccc2O[C@H]1CN(C)S(=O)(=O)c1ccccc1`, the cytotoxicity call in the experiment with HSkMC and with HepG2 was “inactive” each time. The growth inhibition call in the experiment with S. aureus RN4220 is “inactive”.

As to `CC(C)(C)NC[C@@]1(CO)SC(N)=NC1=O`, the cytotoxicity call in the experiment on HSkMC (human skeletal muscle cells) and in the experiment on HepG2 was “inactive” throughout. In addition, the growth inhibition call with S. aureus RN4220 was “inactive”.
